# Experimental data taken from paper PMC4336329 (PLoS ONE, 2015).
# About 14,000 (4.5%) of roughly 310,000 compounds showed an effect of 50% or more. Effects have a minus sign here. Some of the results follow.
# Molecular target: human ether-à-go-go-related gene (hERG) potassium channel (human, UniProt Q12809)
# Experiment: primary screen, population patch clamp on CHO cells stably expressing hERG
# 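Also: peak tail current of the secondary pulse compared with the same well before compound.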
# Sequence of human ether-à-go-go-related gene (hERG) potassium channel (Q12809 whole entry, looked up): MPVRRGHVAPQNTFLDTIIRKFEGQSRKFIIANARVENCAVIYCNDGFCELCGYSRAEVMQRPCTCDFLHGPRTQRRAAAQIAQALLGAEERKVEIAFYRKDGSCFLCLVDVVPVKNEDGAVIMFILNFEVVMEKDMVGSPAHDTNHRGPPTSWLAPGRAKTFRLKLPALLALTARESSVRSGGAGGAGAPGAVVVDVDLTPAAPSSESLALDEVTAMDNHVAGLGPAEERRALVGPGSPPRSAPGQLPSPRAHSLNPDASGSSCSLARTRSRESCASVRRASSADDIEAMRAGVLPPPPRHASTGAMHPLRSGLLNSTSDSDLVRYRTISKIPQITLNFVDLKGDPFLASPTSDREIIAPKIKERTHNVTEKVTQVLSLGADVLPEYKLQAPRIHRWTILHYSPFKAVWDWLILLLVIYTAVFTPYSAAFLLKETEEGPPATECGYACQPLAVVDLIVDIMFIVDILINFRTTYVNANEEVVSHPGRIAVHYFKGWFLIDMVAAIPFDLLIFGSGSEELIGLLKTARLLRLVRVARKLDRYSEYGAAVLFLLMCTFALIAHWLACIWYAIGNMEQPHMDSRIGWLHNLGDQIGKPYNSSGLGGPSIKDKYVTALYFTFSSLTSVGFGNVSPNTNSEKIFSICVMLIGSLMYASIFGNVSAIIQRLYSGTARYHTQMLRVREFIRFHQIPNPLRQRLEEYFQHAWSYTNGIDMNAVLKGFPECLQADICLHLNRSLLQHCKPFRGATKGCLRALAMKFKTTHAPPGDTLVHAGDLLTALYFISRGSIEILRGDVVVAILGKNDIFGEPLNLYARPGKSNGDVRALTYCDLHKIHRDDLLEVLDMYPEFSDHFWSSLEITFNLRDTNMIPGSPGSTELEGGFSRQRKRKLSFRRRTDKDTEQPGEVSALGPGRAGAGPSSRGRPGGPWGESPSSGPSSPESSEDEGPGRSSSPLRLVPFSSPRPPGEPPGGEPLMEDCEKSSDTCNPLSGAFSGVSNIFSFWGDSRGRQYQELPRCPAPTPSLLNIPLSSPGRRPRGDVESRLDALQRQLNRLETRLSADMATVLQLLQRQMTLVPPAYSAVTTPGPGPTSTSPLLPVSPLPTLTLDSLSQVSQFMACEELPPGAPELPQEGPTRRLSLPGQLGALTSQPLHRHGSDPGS
row,SMILES,"hERG current change (%, negative = inhibition) at 10uM"
1,COc1cc(C2C3C(=O)N(c4ccc(F)cc4)C(=O)C3ON2c2ccccc2)ccc1O (stereo not drawn),-0.249%
2,CCC12CC3CC(C1)CC(C(=O)Nc1nn[nH]n1)(C3)C2,-19.9%
3,CCOc1ccc(NC(=O)CN(C)C(=O)Cc2n[nH]c(=O)c3ccccc23)cc1OCC,-9.6%
4,CCC(=O)Nc1ccc(S(=O)(=O)c2ccc(NC(=O)CC)cc2)cc1,0.428%
5,COc1ccc(S(=O)(=O)N2CCN(CC(O)COc3ccc(C#N)cc3)CC2)cc1OC (stereo not drawn),-46.9%
6,Cl.OC(CN1CCCCC1)CN(c1ccccc1)c1ccccc1 (stereo not drawn),-63.2%
7,O=c1c2cc3c(cc2[nH]c(=S)n1C1CCN(Cc2ccccc2)CC1)OCO3,-42.3%
8,O=C(NCCc1c[nH]c2ccccc12)c1ccccc1,4.79%
9,CC(=O)SC1CC(=O)N(c2ccc(C(C)(C)C)cc2)C1=O (stereo not drawn),9.99%
10,O=C(NCc1cccnc1)C(=O)c1c[nH]c2ccccc12,2.44%
11,Nc1nc2nc(-c3ccccc3)cc(=O)n2[nH]1,14.4%
12,CCOC(=O)c1oc2c(CN3CCN(CCO)CC3)c(O)c(CC)cc2c(=O)c1-c1nc2ccccc2s1,14.6%
13,C/C(=N/NC(=O)C1CCCC1)c1ccc(NC(=O)C(F)(F)F)cc1,23.5%
14,COc1ccc(NC(=O)[C@@H]2CCCN2S(=O)(=O)c2cccc3cccnc23)cc1,-8.16%
15,CSc1ncc(Cl)c(C(=O)NCc2cccnc2)n1,9.98%
16,CC1=C(C(=O)OCc2ccccc2)C(c2cccs2)N2C(=O)CCSC2=N1 (stereo not drawn),17.7%
17,Cc1cc(/C=C2\SC(=O)N(C)C2=O)c(C)n1-c1ccc(O)cc1,3.54%
18,O=C(CCCn1ncn2c(cc3occc32)c1=O)NCc1cccc(Cl)c1,-61.3%
19,COc1ccc(NC(=O)C(F)(OC)C(F)(F)F)c(OC)c1 (stereo not drawn),-14.8%
20,O=C(C[n+]1cccc(Br)c1)c1ccc(-c2ccccc2)cc1.[Br-],-45.1%
21,CCn1c(SCC(=O)Nc2cccnc2Cl)nnc1-c1ccccc1,-16.2%
22,CCOc1ccc(N(CC(=O)NCCc2ccccc2)S(=O)(=O)c2ccccc2)cc1,20.5%
23,CC(Sc1nc2ccccc2[nH]1)C(=O)NC1CCCCC1C (stereo not drawn),14.4%

row,SMILES,"hERG current change (%, negative = inhibition) at 10uM"
1,Cc1ccc2cccc(OCc3nnc(SCC(=O)O)n3C)c2n1,16.9%
2,S=c1[nH]nc(CCc2nc3ccccc3[nH]2)n1-c1ccccc1,13%
3,O=C(Nc1cccnc1Cl)c1cc(-c2ccc(Br)cc2)on1,36.8%
4,Cc1cc2ccccc2c(=O)n1CC(=O)N(C)c1ccc(F)cc1,-2.62%
5,O=C(Nc1ccccc1)Nc1nc(-c2ccc(F)cc2)cs1,14.6%
6,CC(C)(C)OC(=O)N1CCC(CC2CC(c3cccc(Br)c3)=NO2)(C(=O)NCC2CCCCC2)CC1 (stereo not drawn),13.7%
7,COc1ccc(OC)c(NC(=O)CSc2n[nH]c(-c3cccnc3)n2)c1,-9.92%
8,C/C(Cn1nnc([N+](=O)[O-])n1)=N\NC(=O)c1ccc(Cl)c(Cl)c1,-33.3%
9,Cc1cccc(-n2ccnc2SCC(=O)Nc2ccc3c(c2)OCCO3)c1,-14%
10,CC1CCCN(c2sc(S(C)(=O)=O)nc2S(=O)(=O)c2ccc(Cl)cc2)C1 (stereo not drawn),16.7%
11,CCCCCn1c(=NC(=O)c2cccnc2)c(C#N)cc2c(=O)n3cccc(C)c3nc21,-54.8%
12,Cc1ccc(Cl)cc1N1CCN(C(=O)c2cc3c(=O)[nH]c4ccccc4c3n2C)CC1,8.91%
13,Cc1nc2ccccn2c1-c1ccnn1S(=O)(=O)c1ccc(F)cc1,-36.4%
14,Cc1ccc(S(=O)(=O)Nc2nonc2C)cc1,6.42%
15,CN(C(=O)CC(NC(=O)c1ccccc1)(c1ccccc1)c1ccccc1)c1ccccc1,-8.47%
16,Cc1cc(Br)ccc1NC(=O)CN(C)C(=O)C1CSC2(C)CCC(=O)N12 (stereo not drawn),11.5%
17,CC(=O)Nc1ccc(NC(=O)CCCc2ccccc2)cc1,-0.104%
18,COc1cccc2cc(C(=O)NC3CC(C)(C)NC(C)(C)C3)c(=O)oc12,5.96%
19,C=C(C)CNC(=S)N/N=C/c1ccco1,9.04%
20,CCCN(CC(=O)Nc1ccccc1C)C(=O)c1ccc(COc2ccccc2)cc1,1.84%
21,COC(=O)c1ccc(OC(=O)c2cccnc2SC)cc1,28.4%
22,CC(=O)Nc1ccc(NS(=O)(=O)C(F)(F)F)cc1,31.2%
